# Laboratory results as given in the supplement of paper PMC8183993.
# Structures can show the parent of a compound that is named as a salt. ± gives the standard deviation of the averaged measurements. In all, about 3,100 compounds were measured (“mean cytoplasmic OPP incorporation (global translation) relative to DMSO”: median about 100, lowest 2% from about 56 on). The list shows a part of the results.
# Tested on: U2OS
# Test: mean cytoplasmic OPP incorporation (global translation) relative to DMSO (% of DMSO); higher = more protein synthesis
# Conditions: 10 µM; 24 h
# Description: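 Primary image-based screen in U2OS cells: compounds at 10 uM for 24 h, then a 1 h o-propargyl-puromycin (OPP) pulse, click labelling, and high-throughput microscopy. Mean cytoplasmic OPP intensity and nuclei count were normalised to DMSO wells within each plate (DMSO = 100) and averaged over triplicate plates.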
row,Compound,mean cytoplasmic OPP incorporation
1,O=C(O)c1ccccc1Nc1cccc(C(F)(F)F)c1 [Flufenamic acid],101.6 ± 0.53
2,CC[N+](C)(CC)CCC[n+]1c(-c2ccccc2)c2cc(N)ccc2c2ccc(N)cc21 [Propidium iodide],96.5
3,Nc1ccc(C(=O)O)c(O)c1 [4-aminosalicylic acid],109
4,Nc1ccc(C(=O)O)c(O)c1 [Sodium 4-Aminosalicylate],100
5,c1ccc2sc(N3CCN(Cc4ccc5c(c4)OCO5)CC3)nc2c1 [2-[1-(4-Piperonyl)piperazinyl]benzothiazole],105
6,O=C1Nc2ccc(Cl)cc2[C@@](C#CC2CC2)(C(F)(F)F)O1 [Efavirenz],90
7,N#Cc1ccc(NC(=O)Nc2ccccc2Br)c2n[nH]nc12,104
8,COc1cc(CCc2cc(NC(=O)c3ccc(N4CC(C)NC(C)C4)cc3)n[nH]2)cc(OC)c1 (stereo not given),95 ± 1
9,C[C@@H]1CC[C@@]2(OC1)O[C@H]1C[C@H]3[C@@H]4CC=C5C[C@@H](O)CC[C@]5(C)[C@H]4CC[C@]3(C)[C@H]1[C@@H]2C [Diosgenin],105
10,O=C(NCCCCCCNC(=O)ON=C1CCCCC1)ON=C1CCCCC1,102
11,CC(C)[C@H](O)C(=O)N[C@@H](C)C(=O)N[C@@H]1C(=O)N(C)CCc2ccccc21,100
12,C=CCN1CCc2cc(O)c(O)cc2C(c2ccccc2)C1 (stereo not given),100
13,OCCN1CCN(CC/C=C2/c3ccccc3Sc3ccc(Cl)cc32)CC1 [Zuclopenthixol dihydrochloride],117
14,Cc1[nH]nc2ccc(-c3cncc(OC[C@@H](N)Cc4ccccc4)c3)cc12,61.6
15,"CCC(=O)O[C@]1(C(=O)SCF)[C@H](C)C[C@H]2[C@@H]3C[C@H](F)C4=CC(=O)C=C[C@]4(C)[C@@]3(F)[C@@H](O)C[C@@]21C [Fluticasone propionate (Flonase, Veramyst)]",101
16,CCC(=O)O[C@]1(C(=O)SCF)[C@H](C)C[C@H]2[C@@H]3C[C@H](F)C4=CC(=O)C=C[C@]4(C)[C@@]3(F)[C@@H](O)C[C@@]21C [Fluticasone propionate],108 ± 7.6
17,NS(=O)(=O)c1nn2cc(-c3ccccc3)nc2s1,99.3
18,Nc1ccc(/N=N/c2ccccc2)c(N)n1 [Phenazopyridine hydrochloride],101
19,CN(C)CCOC(=O)C(c1ccccc1)C1(O)CCCC1 (stereo not given) [Cyclopentolate hydrochloride],99.2
20,CCc1cc(Cl)c(OC)c(C(=O)NC[C@@H]2CCCN2CC)c1O [Eticlopride hydrochloride],102
21,O=[N+]([O-])c1cn2c(n1)OC[C@@H](OCc1ccc(OC(F)(F)F)cc1)C2,96.3
22,Cn1nnc2c(C(N)=O)ncn2c1=O [Methazolastone],101
23,Cn1nnc2c(C(N)=O)ncn2c1=O [Temozolomide],104 ± 4.3
24,"CN1[C@@H]2CC[C@H]1C[C@@H](OC(=O)C(O)c1ccccc1)C2 (mixture of isomers) [Homatropine hydrobromide (R,S)]",98.6
25,C[C@]12CC[C@H](O)CC1=CC[C@@H]1[C@@H]2CC[C@]2(C)C(c3cccnc3)=CC[C@@H]12 [Abiraterone (CB-7598)],99.2

row,Compound,mean cytoplasmic OPP incorporation
1,COc1ccc(CCC(=O)c2c(O)cc(O[C@@H]3O[C@H](CO)[C@@H](O)[C@H](O)[C@H]3O[C@@H]3O[C@@H](C)[C@H](O)[C@@H](O)[C@H]3O)cc2O)cc1O [Neohesperidin dihydrochalcone (Nhdc)],99.1
2,CC(C)(C)CC(C)(C)c1ccc(OCCOCC[N+](C)(C)Cc2ccccc2)cc1 [Benzethonium chloride],103
3,CCCCOc1ccc(C(=O)CCN2CCCCC2)cc1 [Dyclonine hydrochloride],99.4
4,COc1ccc(CCC(=O)Nc2nc3ccc(Cl)cc3s2)cc1OC,99.8
5,COc1ccc(-c2cc3nccn3c(Nc3ncccc3C(N)=O)n2)cc1OC,93.9
6,C=C1C(=O)O[C@H]2[C@H]1CC/C(C)=C/CC[C@@]1(C)O[C@@H]21 [Parthenolide],87.6 ± 14
7,Nc1nc(N)c2nc(-c3ccccc3)c(N)nc2n1 [Triamterene],94.4
8,C=C1CC[C@H](O)C/C1=C/C=C1\CCC[C@]2(C)[C@@H]([C@H](C)/C=C/[C@H](C)C(C)C)CC[C@@H]12 [Vitamin D2 (Ergocalciferol)],99.5
9,C=CC[N+]1([C@H]2C[C@H]3[C@@H]4CC[C@H]5C[C@H](O)[C@@H](N6CCOCC6)C[C@]5(C)[C@H]4CC[C@]3(C)[C@H]2OC(C)=O)CCCC1 [Rocuronium bromide],101
10,CC(C)(C)NC(=O)[C@H]1CC[C@H]2[C@@H]3CC[C@H]4NC(=O)C=C[C@]4(C)[C@H]3CC[C@]12C [Finasteride],102 ± 4.5
11,Cc1ccc(C(=O)N(CCCN)[C@@H](c2oc3cc(Cl)ccc3c(=O)c2Cc2ccccc2)C(C)C)cc1,327
12,C[N+](C)(C)C[C@H](O)CC(=O)[O-] [L-carnitine (Levocarnitine)],104
13,O=C(O)c1cc(O)ccc1O [Gentisic acid],101
14,CC(C)C(=O)c1c(C(C)C)nn2ccccc12 [Ibudilast],90.3 ± 1.4
15,C[N+](C)(C)CC(O)CC(=O)[O-] (racemic) [DL-Carnitine HCl],97.4
16,CC(CN(C)C)CN1c2ccccc2CCc2ccccc21 (stereo not given) [Trimipramine maleate salt],106
17,COP(=O)(OC)OC(c1ccc(Cl)cc1)P(=O)(OC)OC (stereo not given),91.5
18,Cn1c(N2CCCCS2(=O)=O)nc(C(=O)NCc2ccc(F)cc2)c(O)c1=O,106
19,COC(=O)[C@H]1[C@H]2C[C@H]3c4[nH]c5ccccc5c4CCN3C[C@H]2CC[C@@H]1O [Rauwolscine hydrochloride],100
20,CC(C)NCC(O)COc1cccc2[nH]ccc12 (stereo not given) [Pindolol],99.2 ± 3.2
21,OC(CCN1CCCC1)(c1ccccc1)C1CCCCC1 (stereo not given) [Procyclidine hydrochloride],106
22,C[C@H](CS)C(=O)N1CCC[C@H]1C(=O)O [Captopril],97.6 ± 2.7
23,CN(Cc1cc(Br)cc(Br)c1N)C1CCCCC1 [Bromhexine hydrochloride],108
24,Cn1cnc2c(F)c(Nc3ccc(Br)cc3Cl)c(C(=O)NOCCO)cc21 [AZD6244 (Selumetinib)],88.1
25,Nc1nc(N)c2nc(-c3cccc(O)c3)c(-c3cccc(O)c3)nc2n1,104

row,Compound,mean cytoplasmic OPP incorporation
1,CC1(C)O[C@@H]2C[C@H]3[C@@H]4C[C@H](F)C5=CC(=O)C=C[C@]5(C)[C@H]4[C@@H](O)C[C@]3(C)[C@]2(C(=O)CO)O1 [Flunisolide],110
2,O=C(/C=C/c1cccnc1)NCCCCC1CCN(C(=O)c2ccccc2)CC1,105
3,NCCc1ccc(O)c(O)c1 [Dopamine hydrochloride],104
4,N#CC1(c2ccc(NC(=O)c3cccnc3NCc3ccncc3)cc2)CCCC1 [Apatinib (YN968D1)],114
5,CCCNC(=O)N1N=C(c2ccc(N)cc2)c2cc3c(cc2C1C)OCO3 (stereo not given),107
6,Cc1c(Nc2ncccc2C(=O)O)cccc1C(F)(F)F [Flunixin meglumine],106
7,CC[C@H](c1ccc(O)cc1)[C@@H](CC)c1ccc(O)cc1 [Hexestrol (Bibenzyl)],104
8,CC[C@H](c1ccc(O)cc1)[C@@H](CC)c1ccc(O)cc1 [Hexestrol],106
9,Cc1ccc2c(c1)c1c(n2CCc2ccc(C)nc2)CCN(C)C1 [Dimebon (Latrepirdine)],108
10,COc1ccc(CNc2nc(N3CCC[C@H]3CO)ncc2C(=O)NCc2ncccn2)cc1Cl [Avanafil],110
11,O=C1NC(c2cccc([N+](=O)[O-])c2)=CCN1c1ccccc1O [Icilin],99
12,CC(=O)OCC(=O)[C@@]1(O)CC[C@H]2[C@@H]3CCC4=CC(=O)C=C[C@]4(C)[C@H]3[C@@H](O)C[C@@]21C [Prednisolone acetate (Omnipred)],103
13,CCCN(CC1CC1)c1nc(C)nc(Nc2c(Cl)cc(Cl)cc2Cl)c1Cl,105
14,CN1CCN(C(=O)c2cc3cc(Cl)ccc3[nH]2)CC1,103
15,O=C(Nc1ncc(SCCN2CCCC2)s1)[C@]1(c2ccc(S(=O)(=O)C3CC3)cc2)C[C@H]1C1CCCCC1,128
16,O=C(O)CCCN1CCC(O[C@@H](c2ccc(Cl)cc2)c2ccccn2)CC1 [Bepotastine Besilate],110
17,C[C@H]1C[C@H]2[C@@H]3CCC4=CC(=O)C=C[C@]4(C)[C@H]3C(=O)C[C@]2(C)[C@@]1(O)C(=O)CO [Betapar (Meprednisone)],119
18,CC1(C)O[C@@H]2C[C@H]3[C@@H]4C[C@H](F)C5=CC(=O)CC[C@]5(C)[C@H]4[C@@H](O)C[C@]3(C)[C@]2(C(=O)CO)O1 [Flurandrenolide],97.9
19,CCC(=O)OCC(=O)[C@@]1(OC(=O)CC)[C@@H](C)C[C@H]2[C@@H]3CCC4=CC(=O)C=C[C@]4(C)[C@@]3(F)[C@@H](O)C[C@@]21C [Betamethasone Dipropionate (Diprolene)],118
20,Cc1ccc(S(=O)(=O)OCC(=O)Nc2ccc(C(=O)O)c(O)c2)cc1,101
21,COc1ccc(Br)cc1S(=O)(=O)NC(=O)/C=C/c1ccccc1Cc1ccc2ccccc2c1,102
22,CN1CCN(C(=O)c2nc3ccc(Cl)cc3[nH]2)CC1,81.1
23,Nc1ncn(C2CC(O)C(CO)O2)c(=O)n1 (stereo not given) [5-Aza-2-deoxycytidine],94.5
24,NNC(=O)c1ccncc1 [Isoniazid],76
25,CN(C(=O)CCCOc1ccc2[nH]c(=O)ccc2c1)C1CCCCC1 [Cilostamide],92.3
